Reference: PubChem BioAssay (NCI)
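Step 1: Grow cells in 96-well plates. Step 2: Expose to compound for 48 hours at 5 concentrations. Step 3: Interpolate endpoints linearly; if unreached, use highest concentration. Abbreviation: GI50, concentration required for 50% inhibition of growth. TGI is the concentration that stops growth completely.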

test system: NCI-H322M lung; assay: NCI anticancer screen, dose series, 48 h

Point of comparison: `CCOc1cc(-c2ccc[nH]2)[nH]c1/C=C1\N=C(C)C(C(=O)OC)=C1C`, TGI 2.74 µM. Against it:
- NC1=NCC(CN2CCCC2)O1 (stereo unspecified) — higher, > 100 µM
- COc1ccccc1NC(=O)C(CC(C(=O)Nc1ccccc1OC)/C(C)=N/Nc1ccc([N+](=O)[O-])cc1[N+](=O)[O-])/C(C)=N/Nc1ccc([N+](=O)[O-])cc1[N+](=O)[O-] (stereo unspecified) — higher, > 100 µM
- COc1ccc2nc3n(c2c1)CCc1cc(OC)c(OC)cc1-3 — higher, > 100 µM
- S=C(NCc1ccccc1)N/N=C/c1ccccn1 — higher, > 100 µM
- COc1ccc(C(O)CC(O)(C(F)(F)F)C(F)(F)F)cc1 (stereo unspecified) — higher, > 100 µM
- CCOc1ccc(C(CN2CCOCC2)C(C)=O)cc1OC (stereo unspecified) — higher, > 100 µM
- NS(=O)(=O)c1ccc(NNc2c3ccccc3nc3c(C(=O)Nc4ccc(S(=O)(=O)Nc5ncccn5)cc4)cccc23)cc1 — higher, > 25 µM
- Cn1c2ccccc2n2c3ncccc3c(=S)c(C#N)c12 — higher, > 100 µM
- O=C(Nc1cccc(-n2cc(-c3ccncc3)c(-c3ccc(O)c(Cl)c3)n2)c1)c1cccc(C(F)(F)F)c1 — higher, > 100 µM
- COc1cc(/C=C(\C#N)C(N)=C(C#N)C#N)cc(O)c1O — higher, > 100 µM
- Cc1ccc(-c2n[nH]c(=O)n2/N=C\c2ccccc2)cc1 — higher, > 100 µM
- N=C1C=C(N)C(=O)c2[nH]c(=O)ccc21 — within 1.5-fold, 3.7 µM
- Nc1ccc(S(=O)(=O)Nc2cnc3c(Cl)cccc3n2)cc1 — higher, > 750 µM
- O=C(Cc1ccccc1)NN1C(=O)/C(=C\c2ccc(O)cc2)SC1=Nc1ccccc1 — higher, > 100 µM
- COc1cc2cc3c4c(cc(OC)c(OC)c4c2cc1OC)CCN3C(=O)CCC(=O)NCCCN(C)C — higher, > 100 µM
- Cc1cc(Cl)cc2c1NC(=O)C2=O (tested in a mixture with another compound) — higher, > 100 µM
- C/C(CC(=O)N(C(C)C)C(C)C)=N\NC(=O)c1ccncc1 — higher, > 100 µM
- Nc1ncnc2c1ncn2Cc1cccc(CCl)c1 — 14-fold higher, 38.2 µM
- O=C(c1ccc(Cl)cc1)C1OC12C(=O)Nc1ccccc12 (stereo unspecified) — higher, > 56.6 µM
- Cc1ccc(S(=O)(=O)N(CC(O)COc2ccccc2)c2ccc(F)cc2F)cc1 (stereo unspecified) — 22-fold higher, 59.6 µM
- CCN(CC)c1nc(N(C)C)c2ccccc2n1 — higher, > 100 µM
- CCN(CC)CCN(C(=O)C(C)(C)C)c1ccccc1N — higher, > 100 µM
- O=C1c2ccccc2C(=O)c2nc3ccc(Cl)cc3cc21 — higher, > 100 µM
- CCC(CC(C)C)Nc1ccc(NC(CC)CC(C)C)cc1 (stereo unspecified) — higher, > 100 µM
- CSC1=NCC2(S1)c1ccccc1N(C(=O)OC(C)(C)C)C2N1CCCCC1 (stereo unspecified) — higher, > 100 µM
- C/C(Nc1ccc(Cl)cc1Cl)=C1/CCOC1=O — higher, > 100 µM
- NCCOCC(N)C(=O)O (stereo unspecified) — higher, > 100 µM
- CN(C=O)/C=C/c1cc(O)ccc1O — higher, > 100 µM
- CC(C)C(=O)Oc1cc2c(=O)oc3c(OC(=O)C(C)C)c(OC(=O)C(C)C)cc4c(=O)oc(c1OC(=O)C(C)C)c2c34 — higher, > 100 µM
- Cc1cc2c(c(=O)n1C)SCC2 — higher, > 100 µM
- c1ccc(-c2nnn(CCN3CCCCC3)n2)cc1 — higher, > 100 µM
- CC(C)C1(O)C(=O)N(c2c(F)c(F)c(F)c(F)c2F)C(=S)N1CCSc1ccccc1 (stereo unspecified) — 12-fold higher, 31.8 µM
- CSc1nc(NC(C)C)c2c(n1)Sc1nc3ccccc3n1C2O (stereo unspecified) — higher, > 100 µM
- COC(OC)c1cc2c(cc1C(=O)[C@@]13CCC[C@@H]1NC(=O)O3)OCO2 — higher, > 100 µM
- FC1OC2OC1C(OCc1ccccc1)C(OCc1ccccc1)C2OCc1ccccc1 (stereo unspecified) — higher, > 100 µM
- COc1cc(NC(=O)Nc2cnc(Nc3ccc(N4CCOCC4)cc3)nc2Oc2cccc(OC)c2)cc(OC)c1 — 3.4-fold higher, 9.44 µM
- Cc1[nH]c(=O)[nH]c(=S)c1C(=O)Nc1cccc2cc3ccccc3cc12 — higher, > 100 µM
- COC(=O)CC(C(C(C)=O)C(=O)OCc1ccccc1)N1C(=O)OCC1c1ccccc1 (stereo unspecified) — higher, > 100 µM
- Cc1nc(-c2cc3cc(Cl)ccc3oc2=O)cc2c1c(=O)oc1ccc(Cl)cc12 — higher, > 100 µM
- C#CCN(Cc1ccc2nc(N)[nH]c(=O)c2c1)c1ccc(C(=O)NC(CCC(=O)O)C(=O)O)cc1 (stereo unspecified) — higher, > 100 µM
- COc1cccc(NC(=O)C(=O)C(C(C)=O)c2nc3ccc(Cl)cc3[nH]c2=O)c1 (stereo unspecified) — higher, > 100 µM
- Cc1ccccc1OC(C)C(=O)NN1C(=O)CC(=O)N(c2ccccc2)C1=S (stereo unspecified) — higher, > 100 µM
- O=c1[nH]c2ccccc2n1-c1n[nH]c2ccccc12 — higher, > 100 µM
- COc1ccc(CCN=C2CCC(C(=O)NCCc3ccc(OC)c(OC)c3)N2)cc1OC (stereo unspecified) — higher, > 100 µM
- O=[N+]([O-])c1ccc(C(Nc2ccccc2)c2ccc3cccnc3c2O)cc1 (stereo unspecified) — higher, > 100 µM
- Cc1cc([N+](=O)[O-])c(C)c(Br)c1C — higher, > 100 µM
- Cc1cc2cc3c(cc2c(-c2ccc(N)cc2)n1)OCO3 — higher, > 100 µM
- COc1ccccc1CNCCCCCCCCCCCCN1C(=O)c2ccc3c4c(ccc(c24)C1=O)C(=O)N(CCCCCCCCCCCCNCc1ccccc1OC)C3=O — higher, > 50 µM
- COc1ccc(S(=O)(=O)N(C)CC(=O)O)cc1 — higher, > 100 µM
- CCOC(=O)C(=O)C(=O)NN(C)C1=NCCN1 — higher, > 100 µM
- CC(=O)O[C@H]1CC[C@@]2(C)[C@H](CC[C@@H]3[C@@H]2CC[C@]2(C)[C@@H](c4ccc(=O)oc4)C[C@H]4O[C@]342)C1 — within 1.5-fold, 2.02 µM
- N[C@@H]1CCCC[C@@H]1N.O=P([O-])([O-])CN(CP(=O)([O-])[O-])CP(=O)([O-])[O-].[Pt+2] — higher, > 100 µM
- O=c1cc(NCc2ccncc2)[nH]c(=O)[nH]1 — higher, > 100 µM
- C=CC1CN2CCC1CC2C(O)c1ccnc2ccccc12 (stereo unspecified) — higher, > 100 µM
- O=c1c2ccccc2oc2ccc(OCCCCCCN3CCCCCC3)cc12 — 8.1-fold higher, 22.1 µM
- CS(=O)(=O)NC12CCC(c3ccccc31)c1ccccc12 — higher, > 100 µM
- C(/Cc1ccc2c(c1)OCO2)=N\NC1=NCCCN1 — higher, > 100 µM
- CC(=O)Oc1ccc(/C=N/NC(N)=S)nc1 — 27-fold higher, 72.7 µM
- CCN(CC)c1ccc2cc(-c3nc4ccccc4c(=O)[nH]3)c(=N)oc2c1 — higher, > 100 µM
- O=C1c2ccccc2-c2[nH]c3cn[nH]c(=O)c3c21 — higher, > 100 µM
- CCOC(=O)C1(C(F)(F)F)N=C(CC)OC(N2CCOCC2)=N1 (stereo unspecified) — higher, > 100 µM
- CCOC(=O)c1cnccc1CC1(C#N)c2ccccc2C=CN1C(=O)c1ccccc1 (stereo unspecified) — higher, > 100 µM
- O=C1CC(n2cccc2)c2c(Br)sc(Br)c21 (stereo unspecified) — 13-fold higher, 36.5 µM
- OCNCCNc1nc2ccccc2c2[nH]c3ccccc3c12 — within 1.5-fold, 3.88 µM
- CC/C=C\C/C=C\C[C@H](O)C/C=C1/C(=O)C=C[C@@H]1C/C=C\CCCC(=O)OC — 3.8-fold higher, 10.4 µM
- Oc1ccc(Cl)cc1Cc1cc(Cl)ccc1O — 3.6-fold higher, 9.76 µM
- COC(=O)c1c(-c2ccc(Cl)cc2)cc2c3ccccc3n(C)c2c1C(=O)OC — higher, > 100 µM
- O=C(NNCc1ccc(Cl)cc1)Nc1cccc2ccccc12 — higher, > 100 µM
- CC(=O)/C(=C\c1ccc(Cl)c(Cl)c1)C(=O)C(C)CN(C)C (stereo unspecified) — 5.1-fold higher, 13.9 µM
- Nc1nc(Cl)cc(NCC2(O)CCCC2)n1 — higher, > 100 µM
- Cc1ccc(S(=O)(=O)n2cc(C#N)c(C#N)c2)cc1 — higher, > 100 µM

Point of comparison: `CC(=O)Oc1ccc(/C=N/NC(N)=S)nc1`, GI50 4.96 µM. Against it:
- CCOc1cc(-c2ccc[nH]2)[nH]c1/C=C1\N=C(C)C(C(=O)OC)=C1C — 8.5-fold lower, 0.582 µM
- O=C(Nc1cccc(-n2cc(-c3ccncc3)c(-c3ccc(O)c(Cl)c3)n2)c1)c1cccc(C(F)(F)F)c1 — 1.9-fold higher, 9.62 µM
- Nc1ccc(S(=O)(=O)Nc2cnc3c(Cl)cccc3n2)cc1 — higher, > 86.5 µM
- CCC(CC(C)C)Nc1ccc(NC(CC)CC(C)C)cc1 (stereo unspecified) — 7-fold higher, 34.8 µM
- CSC1=NCC2(S1)c1ccccc1N(C(=O)OC(C)(C)C)C2N1CCCCC1 (stereo unspecified) — higher, > 100 µM
- COc1cc(NC(=O)Nc2cnc(Nc3ccc(N4CCOCC4)cc3)nc2Oc2cccc(OC)c2)cc(OC)c1 — 2.8-fold lower, 1.79 µM
- O=c1[nH]c2ccccc2n1-c1n[nH]c2ccccc12 — 11-fold higher, 56.5 µM
- COc1ccccc1CNCCCCCCCCCCCCN1C(=O)c2ccc3c4c(ccc(c24)C1=O)C(=O)N(CCCCCCCCCCCCNCc1ccccc1OC)C3=O — higher, > 50 µM
- N[C@@H]1CCCC[C@@H]1N.O=P([O-])([O-])CN(CP(=O)([O-])[O-])CP(=O)([O-])[O-].[Pt+2] — higher, > 100 µM
- O=c1c2ccccc2oc2ccc(OCCCCCCN3CCCCCC3)cc12 — 1.9-fold higher, 9.31 µM
- OCNCCNc1nc2ccccc2c2[nH]c3ccccc3c12 — 3.4-fold lower, 1.46 µM
- CC/C=C\C/C=C\C[C@H](O)C/C=C1/C(=O)C=C[C@@H]1C/C=C\CCCC(=O)OC — 1.6-fold lower, 3.12 µM
- Oc1ccc(Cl)cc1Cc1cc(Cl)ccc1O — 1.8-fold lower, 2.75 µM
